Measurements reported in the supplement of paper PMC4604168 (melanoma cell lines).
Some of the results follow. Repeats are few or missing, and single values can be far off.

Tests used:
Assay in all cases: cell count relative to DMSO control; melanoma cells; higher = more viable cells
Conditions in all cases: library dose: standard library concentration; 72 h
G361 = test system: G361
IPC-298 = test system: IPC-298
IST-MEL1 = test system: IST-MEL1
LB2518-MEL = test system: LB2518-MEL
LOXIMVI = test system: LOXIMVI
MEL-HO = test system: MEL-HO
MZ2-MEL = test system: MZ2-MEL
MeWo = test system: MeWo
RPMI7951 = test system: RPMI7951
RVH-421 = test system: RVH-421
SkMel28 = test system: SkMel28
SkMel2 = test system: SkMel2
SkMel30 = test system: SkMel30
SkMel5 = test system: SkMel5
UACC257 = test system: UACC257
UACC62 = test system: UACC62
WM115 = test system: WM115
WM1716 = test system: WM1716
WM1745 = test system: WM1745
WM3526 = test system: WM3526
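Also: cells treated in 1,536-well plates, then fixed and DAPI-stained, with nuclei counted from automated high-throughput microscope images.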

| Compound | cell count (G361) [%] | cell count (IPC-298) [%] | cell count (IST-MEL1) [%] | cell count (LB2518-MEL) [%] | cell count (LOXIMVI) [%] | cell count (MEL-HO) [%] | cell count (MZ2-MEL) [%] | cell count (MeWo) [%] | cell count (RPMI7951) [%] | cell count (RVH-421) [%] | cell count (SkMel28) [%] | cell count (SkMel2) [%] | cell count (SkMel30) [%] | cell count (SkMel5) [%] | cell count (UACC257) [%] | cell count (UACC62) [%] | cell count (WM115) [%] | cell count (WM1716) [%] | cell count (WM1745) [%] | cell count (WM3526) [%] |
| --- | --- | --- | --- | --- | --- | --- | --- | --- | --- | --- | --- | --- | --- | --- | --- | --- | --- | --- | --- | --- |
| N#CC[C@H](C1CCCC1)n1cc(-c2ncnc3[nH]ccc23)cn1 [ruxolitinib] + CC[C@]1(O)C[C@H]2CN(CCc3c([nH]c4ccccc34)[C@@](C(=O)OC)(c3cc4c(cc3OC)N(C=O)[C@H]3[C@@](O)(C(=O)OC)[C@H](OC(C)=O)[C@]5(CC)C=CCN6CC[C@]43[C@@H]65)C2)C1 [vincristine] (first compound 5 µM, partner dose 0.0005 µM) | 82.6 | 99.6 | 82.6 | 102 | 91.7 | 88.6 | 108 | 83.1 | 54.2 | 43.1 | 79.7 | 105 | 71.9 | 65.8 | 96.2 | 56 | 73.6 | 49.3 | 55.9 | 59.2 |
| N#CC[C@H](C1CCCC1)n1cc(-c2ncnc3[nH]ccc23)cn1 [ruxolitinib] + CN(NC(=O)CC(=O)NN(C)C(=S)c1ccccc1)C(=S)c1ccccc1 [STA4783] (first compound 5 µM, partner dose 0.03 µM) | 36.2 | 85.7 | 6.09 | 25.5 | 82.3 | 75.9 | 121 | 18.3 | 85.2 | 45.4 | 46.3 | 71.7 | 94.2 | 42.4 | 100 | 48.1 | 24.2 | 76.7 | 48.6 | 103 |
| N#CC[C@H](C1CCCC1)n1cc(-c2ncnc3[nH]ccc23)cn1 [ruxolitinib] + CN(C)S(=O)(=O)c1ccc2c(c1)/C(=C/c1cc3c([nH]1)CCCC3)C(=O)N2 [SU6656] (first compound 5 µM, partner dose 2 µM) | 71.5 | 77.6 | 75 | 77.7 | 127 | 70.9 | 80.5 | 76.5 | 53.9 | 76.2 | 56.3 | 85.2 | 113 | 64.2 | 68.7 | 83.1 | 33.3 | 72.2 | 66 | 82.9 |
| CC[C@]1(O)C[C@H]2CN(CCc3c([nH]c4ccccc34)[C@@](C(=O)OC)(c3cc4c(cc3OC)N(C=O)[C@H]3[C@@](O)(C(=O)OC)[C@H](OC(C)=O)[C@]5(CC)C=CCN6CC[C@]43[C@@H]65)C2)C1 [vincristine] + CC(=O)c1c(C)c2cnc(Nc3ccc(N4CCNCC4)cn3)nc2n(C2CCCC2)c1=O [palbociclib] (first compound 0.0005 µM, partner dose 0.2 µM) | 71.2 | 67.2 | 71.3 | 64.4 | 80.2 | 61 | 56.4 | 43.6 | 39.8 | 47.7 | 31.1 | 49.2 | 42.6 | 46.1 | 70.8 | 55.3 | 35.4 | 38.1 | 64.7 | 49.5 |
| Cc1cc(Nc2cc(N3CCN(C)CC3)nc(Sc3ccc(NC(=O)C4CC4)cc3)n2)n[nH]1 [Tozasertib] + COc1ccc(C2=N[C@@H](c3ccc(Cl)cc3)[C@@H](c3ccc(Cl)cc3)N2C(=O)N2CCNC(=O)C2)c(OC(C)C)c1 [Nutlin-3] (first compound 0.03 µM, partner dose 0.5 µM) | 62.2 | 87.2 | 103 | 66.7 | 93.9 | 101 | 65.1 | 77.7 | 114 | 83 | 30.3 | 84.6 | 85.8 | 56 | 69.2 | 46 | 55.2 | 52.2 | 60.8 | 82.4 |
| N#CC[C@H](C1CCCC1)n1cc(-c2ncnc3[nH]ccc23)cn1 [ruxolitinib] + COC(=O)c1sccc1S(=O)(=O)Nc1ccc(Nc2ccccc2)cc1OC [GSK0660] (first compound 5 µM, partner dose 5 µM) | 67.6 | 83.1 | 92.1 | 145 | 94.7 | 84.5 | 69.7 | 88.5 | 66.7 | 79.3 | 103 | 93.5 | 104 | 76.8 | 88.1 | 81.6 | 120 | 84.9 |  | 89.9 |
| CC[C@]1(O)C[C@H]2CN(CCc3c([nH]c4ccccc34)[C@@](C(=O)OC)(c3cc4c(cc3OC)N(C=O)[C@H]3[C@@](O)(C(=O)OC)[C@H](OC(C)=O)[C@]5(CC)C=CCN6CC[C@]43[C@@H]65)C2)C1 [vincristine] + O=c1cc(-c2cccc3c2Sc2ccccc2S3)oc(N2CCOCC2)c1 [KU55933] (first compound 0.0005 µM, partner dose 5 µM) | 55.7 | 87.1 | 63.2 | 50.1 | 84.8 | 72.7 | 54.1 | 36.5 | 40.7 | 40.3 | 36.9 | 50.7 | 49.9 | 38.6 | 54.4 | 57.5 | 33.2 | 40.6 |  | 54.8 |
| N#CC[C@H](C1CCCC1)n1cc(-c2ncnc3[nH]ccc23)cn1 [ruxolitinib] + CC(=O)c1c(C)c2cnc(Nc3ccc(N4CCNCC4)cn3)nc2n(C2CCCC2)c1=O [palbociclib] (first compound 5 µM, partner dose 0.2 µM) | 48.8 | 69.2 | 67.3 | 62.4 | 70.1 | 64.5 | 60 | 44.9 | 59.6 | 45.8 | 54.7 | 64.2 | 61.3 | 47.7 | 73.1 | 55.9 | 54.7 | 38.8 | 96.2 | 49 |
| Cc1cc(Nc2cc(N3CCN(C)CC3)nc(Sc3ccc(NC(=O)C4CC4)cc3)n2)n[nH]1 [Tozasertib] + CN(NC(=O)CC(=O)NN(C)C(=S)c1ccccc1)C(=S)c1ccccc1 [STA4783] (first compound 0.03 µM, partner dose 0.03 µM) | 48.2 | 72.9 | 42.9 | 24.1 | 67.6 | 87.5 | 82.8 | 23 | 93.4 | 87.1 | 42.1 | 77.1 | 102 | 58.3 | 84.2 | 39.5 | 16.5 | 70.5 | 33.1 | 99.6 |
| N#CC[C@H](C1CCCC1)n1cc(-c2ncnc3[nH]ccc23)cn1 [ruxolitinib] + Cc1cc([N+](=O)[O-])ccc1NS(=O)(=O)c1cc(Cl)ccc1Cl [FH535] (first compound 5 µM, partner dose 5 µM) | 40.2 | 46.1 | 67.7 | 88.9 | 124 | 49.5 | 61.9 | 58 | 72 | 72.4 | 79.9 | 120 | 99.2 | 88.6 | 64.9 | 104 | 76.6 | 59.3 |  | 76.7 |
| Cc1cc(Nc2cc(N3CCN(C)CC3)nc(Sc3ccc(NC(=O)C4CC4)cc3)n2)n[nH]1 [Tozasertib] + NCC(=O)Nc1ccc(-n2nc(C(F)(F)F)cc2-c2ccc3c(ccc4ccccc43)c2)cc1 [OSU03012] (first compound 0.03 µM, partner dose 5 µM) | 76.1 | 64.1 | 98.7 | 82.1 | 62.6 | 92.7 | 86 | 84.5 | 119 | 80.1 | 30.4 | 59.4 | 60.6 | 60.8 | 78.6 | 75.4 | 66.8 | 93.6 | 63.6 | 46.8 |
| N#CC[C@H](C1CCCC1)n1cc(-c2ncnc3[nH]ccc23)cn1 [ruxolitinib] + Cn1nnc2c(C(N)=O)ncn2c1=O [temozolomide] (first compound 5 µM, partner dose 10 µM) | 103 | 106 | 87.9 | 136 | 108 | 91.5 | 104 | 104 | 102 | 34.1 | 48.4 | 129 | 74.4 | 96.8 | 91 | 76.6 | 92.9 | 53.8 | 71.4 | 126 |
| Cc1cc(Nc2cc(N3CCN(C)CC3)nc(Sc3ccc(NC(=O)C4CC4)cc3)n2)n[nH]1 [Tozasertib] + NC1(c2ccc(-c3nc4ccn5c(=O)[nH]nc5c4cc3-c3ccccc3)cc2)CCC1 [MK2206] (first compound 0.03 µM, partner dose 2 µM) | 71 | 91 | 82.2 | 75.2 | 85.5 | 72.6 | 70.3 | 65.9 | 52.4 | 74.6 | 46.7 | 78.9 | 86.8 | 63.9 | 81.3 | 84.9 | 47.9 | 64.8 | 50.3 | 74.9 |
| Cc1cc(Nc2cc(N3CCN(C)CC3)nc(Sc3ccc(NC(=O)C4CC4)cc3)n2)n[nH]1 [Tozasertib] + CC1(C)NC(=O)N(c2ccc([N+](=O)[O-])c(C(F)(F)F)c2)C1=O [nilutamide] (first compound 0.03 µM, partner dose 5 µM) | 103 | 116 | 111 | 81.9 | 112 | 101 | 74.8 | 88.7 | 105 | 102 | 82 | 93.3 | 104 | 86.4 | 96.7 | 92.9 | 61.9 | 77 | 51.9 | 97.1 |
| Cc1cc(Nc2cc(N3CCN(C)CC3)nc(Sc3ccc(NC(=O)C4CC4)cc3)n2)n[nH]1 [Tozasertib] + CC(=O)c1c(C)c2cnc(Nc3ccc(N4CCNCC4)cn3)nc2n(C2CCCC2)c1=O [palbociclib] (first compound 0.03 µM, partner dose 0.2 µM) | 53.8 | 70.9 | 67.9 | 66.2 | 56.1 | 81.1 | 55.5 | 53.4 | 63.7 | 185 | 40.3 | 67.9 | 51.3 | 47.7 | 74.9 | 64.5 | 39.3 | 36.3 | 55.6 | 44.7 |
